Results from patent publication US20240287457A1, “COMPOSITIONS AND CELL CULTURE MEDIA FOR INCREASING NEUTROPHIL LIFESPAN” (THE CHILDREN'S MEDICAL CENTER CORPORATION, priority 2021, published 2024).

Legend:
murine neutrophils = assay: In vitro neutrophil death / survival of cultured murine neutrophils; format: cell-based, mouse
human neutrophils = assay: In vitro neutrophil death / survival of cultured human neutrophils

B1: G-CSF: granulocyte colony-stimulating factor (AMGEN, NEUPOGEN), PI3K/Akt pathway stimulator (protein, listed as Homo sapiens)
chain: MTPLGPASSLPQSFLLKCLEQVRKIQGDGAALQEKLCATYKLCHPEELVLLGHSLGIPWAPLSSCPSQALQLAGCLSQLHSGLFLYQGLLQALEGISPELGPTLDTLQLDVADFATTIWQQMEELGMAPALQPTQGAMPAFASAFQRRAGGVLVASHLQSFLEVSYRVLRHLAQP
Neutrophil survival after 3 days - normalized to fresh neutrophils (100) (murine neutrophils; 1 ng/ml): 19 ± 2.3
Neutrophil survival after 3 days - normalized to fresh neutrophils (100) (murine neutrophils; 10 ng/ml): 21 ± 2.3
Neutrophil survival after 3 days - normalized to fresh neutrophils (100) (murine neutrophils; 100 ng/ml): 21 ± 1.5
Neutrophil survival after 3 days - normalized to fresh neutrophils (100) (murine neutrophils; 1 μg/ml): 21 ± 1.8
Neutrophil survival after 3 days - normalized to fresh neutrophils (100) (murine neutrophils; 10 μg/ml): 21 ± 1.2
Neutrophil survival after 3 days - normalized to fresh neutrophils (100) (human neutrophils; 1 ng/ml): 31 ± 2.1
Neutrophil survival after 3 days - normalized to fresh neutrophils (100) (human neutrophils; 10 ng/ml): 35 ± 4.5
Neutrophil survival after 3 days - normalized to fresh neutrophils (100) (human neutrophils; 100 ng/ml): 30 ± 5.5
Neutrophil survival after 3 days - normalized to fresh neutrophils (100) (human neutrophils; 200 ng/ml): 31 ± 2.1
Neutrophil survival after 3 days - normalized to fresh neutrophils (100) (human neutrophils; 1 μg/ml): 34 ± 3.2
Neutrophil survival after 3 days - normalized to fresh neutrophils (100) (human neutrophils; 10 μg/ml): 32 ± 5.4
